Assay results reported in PubChem BioAssay AID485294 (National Center for Advancing Translational Sciences (NCATS), 2010).
The whole screen tested about 370,000 compounds, of which about 150 (0.041%) were called active. This list was built around the results that the source calls inconclusive (neither active nor inactive); the mix of calls is not that of the screen. The call rests on the fitted dose curve; in most records, active means well fitted inhibition curve with a large enough effect; inconclusive means small, poorly fitted or top-dose-only effect; inactive means flat fitted curve, though single readings scatter. Potencies of inconclusive entries are left out as doubtful fits.

Target: Beta-lactamase (Escherichia coli (strain K12)) (UniProt P00811)
Assay: qHTS Inhibitors of AmpC Beta-Lactamase (assay with detergent); further: nearly all actives have a fitted effect of over 25% in size;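 on activity change, negative = inhibition: 0% = no-compound wells and -100% = no-enzyme wells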
Conditions: AmpC hydrolysis of nitrocefin, absorbance 480 nm, 0.01% Triton; activity change, negative = inhibition: at 114 µM (top of the series)
Outline: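 20 mM phosphate pH 7.0 + 0.01% (detergent screen) or 0.0001% Triton X-100; 5.3 nM AmpC reagent; cpd preinc 15 min RT; nitrocefin (800 uM stock) to start; A480 q20 s × 4 min; Activity was normalised to no-enzyme and no-compound control wells.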
Potency means the concentration at half of the fitted maximal effect; tags describe the fitted curve by direction and shape.

Sequence of UniProt P00811 (P00811 whole entry, looked up): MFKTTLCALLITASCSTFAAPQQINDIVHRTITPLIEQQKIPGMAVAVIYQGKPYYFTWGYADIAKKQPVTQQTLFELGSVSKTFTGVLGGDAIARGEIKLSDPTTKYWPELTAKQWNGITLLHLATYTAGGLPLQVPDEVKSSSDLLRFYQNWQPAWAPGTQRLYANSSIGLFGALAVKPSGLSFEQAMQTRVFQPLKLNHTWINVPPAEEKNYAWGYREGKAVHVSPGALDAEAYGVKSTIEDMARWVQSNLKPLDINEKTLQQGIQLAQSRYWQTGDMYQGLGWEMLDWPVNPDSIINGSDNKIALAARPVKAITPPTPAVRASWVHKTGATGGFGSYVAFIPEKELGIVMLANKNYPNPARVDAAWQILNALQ

SMILES	activity change, negative = inhibition	Potency
CCC(C)NC(=O)Cn1c(COc2ccc(Cl)cc2Cl)nc2ccccc21 (configuration not stated)	inactive: -4.06%	
O=C1CCN(Cc2nnnn2CC2CCCO2)c2ccccc2N1 (configuration not stated)		inconclusive [inhibitor, full curve]
COc1ccc(Cl)cc1NC(=O)CCn1nc(C)cc1C	inactive: 12.9%	
COc1ccc2c(c1)CC(C(=O)Nc1cc(OC)c(OC)c(OC)c1)CO2 (configuration not stated)	inactive: 10.8%	
Cc1cccc(CCNC(=O)CCc2c(C)nc3c(c(C)nn3-c3ccccc3)c2C)c1	inactive: 21.9%	
CC1CC(=O)Nc2ccccc2N1S(=O)(=O)c1ccc(Br)cc1 (configuration not stated)		inconclusive [inhibitor, partial curve, poor fit]
CCOC(=O)c1cc2c(=O)n3ccccc3nc2n(C(C)C)c1=NC(=O)c1c(-c2c(F)cccc2Cl)noc1C		inconclusive [inhibitor, single point]
CC1CCCCC1NC(=O)COC(=O)COc1ccc(Cl)cc1 (configuration not stated)		inconclusive [inhibitor, full curve, poor fit]
Cc1cc2cc3c(cc2nc1SCc1ccccn1)OCCO3	inactive: -12.9%	
CCc1cccc(C)c1NC(=O)c1cc(S(=O)(=O)N2CCN(c3ccccc3)CC2)ccc1F	inactive: 1.9%	
Cc1ccc(S(=O)(=O)C2(C(=O)N3CCCC(C)C3)CC2)cc1 (configuration not stated)	inactive: -0.142%	
O=C(NC1CCCCCCC1)c1ccccc1O		inconclusive [inhibitor, single point]
COc1cccc(/C=N/n2nnnc2N)c1OCc1ccccc1Cl	inactive: 4.45%	
CNS(=O)(=O)c1cc(-c2nn3c(C)nnc3c3ccccc23)ccc1C	inactive: 10%	
Cc1cc2c(cc1C)CSC(c1ccccc1O)SC2		inconclusive [inhibitor, full curve, poor fit]
Cc1cc(C)c(NC(=O)C2=COCCO2)c(C)c1		inconclusive [inhibitor, full curve, poor fit]
O=C(N/N=C/c1ccncc1)c1ccc(OCc2ccccc2)cc1	inactive: 1.15%	
CC(=O)OCCNC(=O)Cn1cnc2c1c(=O)n(C)c(=O)n2C		inconclusive [inhibitor, full curve]
Cc1ccc2nc(-c3cccc(-c4cccc(Cl)c4)c3)c(NCc3ccccc3)n2c1		inconclusive [inhibitor, partial curve, poor fit]
Cc1cccc(CNC(=O)CC2C(=O)NCCN2C2CCCC2)c1 (configuration not stated)		inconclusive [inhibitor, partial curve, poor fit]
Cc1cc(C)c2cc(C#N)c(N3CCCC3)nc2c1	inactive: 0.416%	
Cc1ccc(N(CCC(=O)NC(C)(C)C)S(=O)(=O)c2ccc(C)cc2)cc1		inconclusive [inhibitor, partial curve, poor fit]
